First the molecules themselves.
B1: GPR68, Q15743 (parent)
chain: MGNITADNSSMSCTIDHTIHQTLAPVVYVTVLVVGFPANCLSLYFGYLQIKARNELGVYLCNLTVADLFYICSLPFWLQYVLQHDNWSHGDLSCQVCGILLYENIYISVGFLCCISVDRYLAVAHPFRFHQFRTLKAAVGVSVVIWAKELLTSIYFLMHEEVIEDENQHRVCFEHYPIQAWQRAINYYRFLVGFLFPICLLLASYQGILRAVRRSHGTQKSRKDQIQRLVLSTVVIFLACFLPYHVLLLVRSVWEASCDFAKGVFNAYHFSLLLTSFNCVADPVLYCFVSETTHRDLARLRGACLAFLTCSRTGRAREAYPLGAPEASGKSGAQGEEPELLTKLHPAFQTPNSPGSGGFPTGRLA

Scores whose standard error is large were omitted. The source holds two more conditions with little spread; they are left out. Read del as a deletion of the residues named and ins as an insertion between two positions. For some of these results: The concentration of ogerin is not given here.

Series [1] covers variants of B1. Kind of series: cAMP reporter score (Enrich2 score, wild type = 0); higher = more signal; HEK293T, FACS bins.
In series [2] the parent is B1. Kind of series: surface expression score (Enrich2 score, wild type = 0); higher = more signal; HEK293T, FACS bins.

For the variant V143N, the cAMP reporter score in series [1] (pH 5.5) is -1.46; in series [1] (pH 6) it was -1.08; in series [1] (pH 6, modulator: ogerin), -1.68; in series [1] (pH 6.5, modulator: ogerin), -0.838. Moreover, the surface expression score in series [2] was -1.98.
Consider V143G, for which the cAMP reporter score in series [1] (pH 5.5) was 0.485; in series [1] (pH 6), -1.62; in series [1] (pH 6, modulator: ogerin), 0.265; in series [1] (pH 6.5, modulator: ogerin), -0.2. The surface expression score in series [2] is -0.759.
Regarding V143F, the cAMP reporter score is -0.018 in series [1] (pH 5.5); -1.63 in series [1] (pH 6); -0.133 in series [1] (pH 6, modulator: ogerin); -0.571 in series [1] (pH 6.5, modulator: ogerin). Also, the surface expression score in series [2] was -1.04.
As to V143L, the cAMP reporter score in series [1] (pH 5.5) is 0.148; in series [1] (pH 6), -0.253; in series [1] (pH 6, modulator: ogerin), -0.4; in series [1] (pH 6.5, modulator: ogerin), -0.531. Further, in series [2], the surface expression score is -0.308.
For the variant I145del, the cAMP reporter score in series [1] (pH 5.5) was -0.376; in series [1] (pH 6) it was -1.58; in series [1] (pH 6, modulator: ogerin), -0.856; in series [1] (pH 6.5, modulator: ogerin) it was -0.801. For the same variant, the surface expression score in series [2] was -2.29.
As for L151_T152insGSG, the cAMP reporter score was -0.272 in series [1] (pH 5.5); -0.801 in series [1] (pH 6); -2.02 in series [1] (pH 6, modulator: ogerin). Also, the surface expression score in series [2] is -0.99.
Turning to L151S, the cAMP reporter score in series [1] (pH 5.5) is -1.79; in series [1] (pH 6, modulator: ogerin), -0.647; in series [1] (pH 6.5, modulator: ogerin), -1.84.
On to L151G, for which the cAMP reporter score was -0.304 in series [1] (pH 5.5); -0.956 in series [1] (pH 6); -0.749 in series [1] (pH 6, modulator: ogerin); -1.39 in series [1] (pH 6.5, modulator: ogerin). In series [2], the surface expression score amounted to 0.161.
Consider L151Q, for which the cAMP reporter score in series [1] (pH 5.5) was -1.12; in series [1] (pH 6, modulator: ogerin) it was -1.59; in series [1] (pH 6.5, modulator: ogerin) it was -1.41. Moreover, the surface expression score in series [2] is -3.3.
Consider L151M, for which the cAMP reporter score is -0.606 in series [1] (pH 5.5); 0.161 in series [1] (pH 6); -0.478 in series [1] (pH 6, modulator: ogerin); -0.563 in series [1] (pH 6.5, modulator: ogerin). Also, the surface expression score in series [2] was -0.439.
With L151R, the cAMP reporter score was -1.43 in series [1] (pH 5.5); -1.03 in series [1] (pH 6); -2.45 in series [1] (pH 6.5, modulator: ogerin). For the same variant, in series [2], the surface expression score was -2.75.
In the case of L151H, the cAMP reporter score is -1.44 in series [1] (pH 5.5); -1.44 in series [1] (pH 6); -2.33 in series [1] (pH 6, modulator: ogerin); -1.22 in series [1] (pH 6.5, modulator: ogerin). For the same variant, in series [2], the surface expression score is -2.87.
On to L151F, for which the cAMP reporter score in series [1] (pH 5.5) was -0.02; in series [1] (pH 6), -0.609; in series [1] (pH 6, modulator: ogerin), -0.855; in series [1] (pH 6.5, modulator: ogerin), -1.26. In addition, the surface expression score in series [2] was 0.26.
Turning to L151T, the cAMP reporter score in series [1] (pH 5.5) is -0.392; in series [1] (pH 6, modulator: ogerin) it was 0.556; in series [1] (pH 6.5, modulator: ogerin), -0.433. Further, in series [2], the surface expression score is -0.43.
For the variant L151C, the cAMP reporter score in series [1] (pH 5.5) was -0.762; in series [1] (pH 6) it was -1.58; in series [1] (pH 6, modulator: ogerin) it was -1.91. For the same variant, the surface expression score in series [2] is -0.644.
For the variant L151P, the cAMP reporter score was 0.931 in series [1] (pH 5.5); 1.22 in series [1] (pH 6); -1.03 in series [1] (pH 6, modulator: ogerin); -0.384 in series [1] (pH 6.5, modulator: ogerin). The surface expression score in series [2] was -1.72.
For L151V, the cAMP reporter score is 1.1 in series [1] (pH 5.5); -0.186 in series [1] (pH 6); 0.505 in series [1] (pH 6, modulator: ogerin); 0.963 in series [1] (pH 6.5, modulator: ogerin). Further, the surface expression score in series [2] stood at 1.7.
For L151K, the cAMP reporter score in series [1] (pH 5.5) is -2; in series [1] (pH 6), -1.1; in series [1] (pH 6.5, modulator: ogerin) it was -2.21. The surface expression score in series [2] is -1.41.
For the variant L151N, the cAMP reporter score is -1.23 in series [1] (pH 5.5); -0.408 in series [1] (pH 6, modulator: ogerin); -0.523 in series [1] (pH 6.5, modulator: ogerin). Also, the surface expression score in series [2] is -2.67.
In the case of L151Y, the cAMP reporter score was -0.967 in series [1] (pH 5.5); -1.58 in series [1] (pH 6, modulator: ogerin); -2.48 in series [1] (pH 6.5, modulator: ogerin). Also, the surface expression score in series [2] is -1.55.
For L151E, the cAMP reporter score in series [1] (pH 5.5) was -1.2; in series [1] (pH 6) it was -1.85; in series [1] (pH 6.5, modulator: ogerin), -1.31.
In the case of L151I, the cAMP reporter score is 0.48 in series [1] (pH 5.5); -1.24 in series [1] (pH 6); -0.29 in series [1] (pH 6, modulator: ogerin); -0.991 in series [1] (pH 6.5, modulator: ogerin). In addition, in series [2], the surface expression score is -0.146.
For the variant L151A, the cAMP reporter score in series [1] (pH 5.5) is -0.31; in series [1] (pH 6, modulator: ogerin), -0.63; in series [1] (pH 6.5, modulator: ogerin), -0.197. In series [2], the surface expression score stood at 1.37.
With L151D, the cAMP reporter score in series [1] (pH 5.5) is -2.43; in series [1] (pH 6), -1.16; in series [1] (pH 6, modulator: ogerin) it was -1.01; in series [1] (pH 6.5, modulator: ogerin), -1.25. Further, the surface expression score in series [2] is -1.85.
As for L151W, the cAMP reporter score in series [1] (pH 5.5) is -0.125. The surface expression score in series [2] is -0.361.
Regarding S142_V144del, the cAMP reporter score in series [1] (pH 5.5) is -0.987; in series [1] (pH 6), -0.412; in series [1] (pH 6, modulator: ogerin), -0.398; in series [1] (pH 6.5, modulator: ogerin), -0.261. Further, the surface expression score in series [2] is -2.59.
As for A138_V139del, the cAMP reporter score was -1.4 in series [1] (pH 5.5); -0.916 in series [1] (pH 6); -1.38 in series [1] (pH 6, modulator: ogerin); -1.31 in series [1] (pH 6.5, modulator: ogerin). In series [2], the surface expression score is -3.58.
Take V141_S142insGS: the cAMP reporter score in series [1] (pH 5.5) was -0.214; in series [1] (pH 6), -0.586; in series [1] (pH 6, modulator: ogerin), -0.876; in series [1] (pH 6.5, modulator: ogerin), -0.114.
For the variant V143_I145del, the cAMP reporter score in series [1] (pH 5.5) was -1.4; in series [1] (pH 6) it was -0.514; in series [1] (pH 6, modulator: ogerin), -2.15; in series [1] (pH 6.5, modulator: ogerin) it was -0.518. Also, in series [2], the surface expression score was -2.73.
Consider A137_A138insGS, for which the cAMP reporter score in series [1] (pH 5.5) was -1; in series [1] (pH 6), -1.31; in series [1] (pH 6, modulator: ogerin), -0.742; in series [1] (pH 6.5, modulator: ogerin) it was -0.627. The surface expression score in series [2] was -2.07.
On to K148_E149del, for which the cAMP reporter score in series [1] (pH 5.5) is -1.6; in series [1] (pH 6), -1.1; in series [1] (pH 6, modulator: ogerin), -1.42; in series [1] (pH 6.5, modulator: ogerin) it was -0.831. The surface expression score in series [2] is -2.45.
The corresponding values for W146_K148del are -1.62, -0.698, -1.12, -0.689 and -2.68.
Take L135_K136insGS: the cAMP reporter score in series [1] (pH 5.5) is -0.823; in series [1] (pH 6) it was -1.15; in series [1] (pH 6, modulator: ogerin) it was -2.25; in series [1] (pH 6.5, modulator: ogerin), -1.24. The surface expression score in series [2] is -2.5.

Source of the values: the GPR68 mutational scans of Howard et al. (2025).
